Reference: PubChem BioAssay AID686978 (National Center for Advancing Translational Sciences (NCATS), 2013)
Values joined by “and” are separate entries in the source; they are usually repeats but may differ in a detail not shown here. Equal values may be shown once. In all, about 420,000 compounds went through this assay and about 64,000 (15%) were called active. The shares of active, inactive and inconclusive entries below differ from those in the screen. Calls come from the whole dose curve; as a rule, active = well fitted inhibition curve with a large enough effect; inconclusive = small, poorly fitted or top-dose-only effect; inactive = flat fitted curve, though single readings scatter. Where the call is inconclusive, the potency comes from a doubtful curve fit.

Assay: qHTS for Inhibitors of human tyrosyl-DNA phosphodiesterase 1 (TDP1): qHTS in cells in absence of CPT; note: nearly all actives have a fitted effect of over 55% in size
Settings: DT40 Tdp1-/- hTDP1 cells, no CPT, ATP luminescence, 48 h; activity change, negative = growth inhibition: at 46.2 µM (top of the series)
Outline: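 Cells were dispensed at 400 per well, compounds added by pin tool, plates incubated ≥48 hr at 37 °C, then CellTiter-Glo added for 30 min at room temperature before luminescence reading. Line: DT40 Tdp1-/- complemented with hTDP1; camptothecin omitted.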
% is set by controls: 0 for no effect and ±100 for the full control effect; potency is the fitted concentration of half-maximal effect; tags give direction and shape of the fitted curve.

SMILES | Potency | activity change, negative = growth inhibition
Cc1ccccc1CSc1cn(CCNC(=O)c2cccs2)c2ccccc12 | inconclusive: 25.9 µM [inhibitor, single point] | –
CN1CCN(S(=O)(=O)c2ccc(NC(=O)COc3ccccc3Cl)cc2)CC1 | inactive | –
COC(=O)c1ccc(C2Nc3c(C)cc(C)cc3C3C=CCC32)cc1 (stereo unspecified) | inconclusive: 0.731 µM [inhibitor, full curve, poor fit] | –
CN1CCCC(OC(=O)COc2ccc(Br)cc2)C1 (stereo unspecified) | inactive | –
O=C(NCc1cccnc1)c1ccc(COc2ccccc2Cl)cc1 | active: 13 µM | –
Clc1ccc(-c2cc3ccccc3nc2N2CCOCC2)cc1 | inconclusive: 18.4 µM [inhibitor, single point] | –
Cc1sc2nc(CN3CCCCC3)nc(Nc3ccc4c(c3)OCCO4)c2c1C | inactive | –
CN(C)c1nc(C#N)nc(N2CCOCC2)n1 | inconclusive: 11.2 µM [inhibitor, partial curve] | –
COc1ccc(C(CNC(=O)COc2ccc(C)c(C)c2)N2CCCCC2)cc1 (stereo unspecified) | inconclusive: 29.1 µM [inhibitor, single point] | –
COc1ccccc1C(C)NC(=O)Cc1ccc(S(=O)(=O)N2CCOCC2)s1 (stereo unspecified) | inconclusive: 29.1 µM [inhibitor, single point] | –
C=CCn1c(SCC#N)nc2c(c1=O)C(C)(C)Cc1ccccc1-2 | inconclusive: 20.6 µM [inhibitor, single point] | –
O=C1CCC(/C=C/c2ccccc2)=NN1Cc1ccc(F)cc1 | inconclusive: 20.6 µM [inhibitor, single point] | –
COc1ccc(-c2noc(CCC(=O)NCCc3ccccc3)n2)cc1 | inconclusive: 25.9 µM [inhibitor, single point] | –
N/C(=N\c1nc(CSc2ccccn2)cc(=O)[nH]1)Nc1ccc(Cl)cc1Cl | inconclusive: 29.1 µM [inhibitor, single point] | –
Cc1cc(-c2nnc(CCC(=O)NC(C)c3cccc4ccccc34)o2)no1 (stereo unspecified) | inactive | –
O=C(CSc1nc(-c2cccs2)cc(C(F)(F)F)n1)Nc1cc(OCC(F)(F)F)cc([N+](=O)[O-])c1 | active: 18.4 µM | –
COc1ccc2ccccc2c1/C=N/NC(=O)c1cc(C)[nH]n1 | inconclusive: 5.17 µM [inhibitor, full curve] | –
CCN(Cc1ccc(OC)c(F)c1)C(C)C(=O)Nc1ccc(S(=O)(=O)N2CCCC2)cc1 (stereo unspecified) | active: 20.6 µM | –
Clc1cccc[n+]1CCCC[n+]1ccccc1Cl | inactive | –
O=C(NCCc1ccc2c(c1)OCCO2)c1ccccn1 | inconclusive: 16.4 µM [inhibitor, single point] | –
COc1ccc(C2(C)NC(=O)N(CC(=O)NCC(=O)Nc3ccc(F)c(F)c3F)C2=O)cc1OC (stereo unspecified) | inactive | –
C/C=C/c1ccc(OCC(=O)Nc2cc(OC)c(OC)c(OC)c2)c(OC)c1 | active: 11.6 µM | –
COc1cccc(NC(=O)CN(C)C(=O)CC2CCCCC2)c1 | inactive | –
CC(=O)c1sc(NC(=O)c2cnc(Cl)c(Cl)c2)nc1C | inconclusive: 23.1 µM [inhibitor, single point] | –

SMILES | Potency | activity change, negative = growth inhibition
O=[N+]([O-])c1ccc2nc(-c3ccc(Cl)cc3)[nH]c2c1 | active: 16.4 µM | –
CC12CCC(C(=O)NCc3ccccc3Cl)(C(Br)C1=O)C2(C)C (stereo unspecified) | inconclusive: 2.59 µM [inhibitor, full curve, poor fit] | –
Cc1ccc(C(=O)O)cc1NC(=O)c1ccc(Cn2nc(C)c(Cl)c2C)o1 | inactive | –
O=C(/C=C/c1ccc(Cl)cc1Cl)c1nc2ccccc2[nH]1 | inconclusive: 18.4 µM [inhibitor, single point] | –
O=c1c2ccccc2ncn1-c1ccccc1C(F)(F)F | inactive | –
CCCCN1C(=O)C(CC(=O)NCCCCc2ccccc2)CC(C(=O)N(C(C)C)C(C)C)=C1C (stereo unspecified) | inconclusive: 16.4 µM [inhibitor, single point] | –
Cc1ccc(C)c(NS(=O)(=O)c2cc(Br)cnc2N)c1 | inconclusive: 29.1 µM [inhibitor, single point] | –
Cc1cccc(CN2CCN(C3CN(Cc4cn(Cc5ccc(Cl)cc5)nn4)S(=O)(=O)C3)CC2)c1 (stereo unspecified) | active: 20.6 µM | –
O=C(/C=C/c1ccc(Br)cc1)N1CCN(c2cccc(C(F)(F)F)c2)CC1 | inconclusive: 29.1 µM [inhibitor, single point] | –
CC1(C)CC(=O)C=C(c2cccc(OC(=O)c3ccc(Br)cc3)c2)C1=O | inactive | –
COc1ccc(OC)c(C=C2CCc3ccccc3C2=O)c1 | inconclusive: 29.1 µM [inhibitor, single point] | –
COc1ccc(NC(=O)C2=CC(c3cccs3)=NS(=O)(=O)N2C)cc1 | inconclusive: 25.9 µM [inhibitor, single point] and inconclusive: 29.1 µM [inhibitor, single point] | –
COc1cccc(NC(=O)CCC2CCN(C(=O)C(OC)c3ccccc3)CC2)c1 (stereo unspecified) | active: 20.6 µM | –
O=C(O)CCCCc1nc2ccccc2s1 | inactive | –
COc1ccc(N(CC(=O)NC2CCCC2)C(=O)CCC(=O)Nc2cc(C)on2)c(OC)c1 | inconclusive: 9.2 µM [inhibitor, partial curve, poor fit] | –
Cc1ccc(NC(=O)CN2C(=O)CCSc3ccc(S(=O)(=O)N4CCCC4)cc32)cc1 | inactive and inconclusive: 20.6 µM [inhibitor, single point] | –
CCCCN1C[C@H](c2ccc(OC)cc2)[C@@H](CC(=O)Nc2ccc(Br)cc2)C1=O | inconclusive: 29.1 µM [inhibitor, single point] | –
O=C(NCc1ccccc1)C1C(=O)Nc2ccccc2C(=O)N1Cc1ccccc1 (stereo unspecified) | inconclusive: 23.1 µM [inhibitor, single point] | –
COc1ccc(CC(=O)Nc2nc3c(s2)CC(C(C)(C)C)CC3)cc1 (stereo unspecified) | inconclusive: 25.9 µM [inhibitor, single point] | –
COc1cccc(CN(C)C(=O)CCC(=O)c2cc(Br)ccc2OC)c1 | inconclusive: 29.1 µM [inhibitor, single point] | –
COc1ccc(OC)c(NC(=O)C2(C)CCN2C(=O)CCC2CCCC2)c1 (stereo unspecified) | inconclusive: 29.1 µM [inhibitor, single point] | –
O=C(CC1Sc2ncnn2C1=O)Nc1ccc(Br)cc1 (stereo unspecified) | active: 4.61 µM | –
O=C(Nc1ccc(O)c2c(=O)cc(-c3cccc(Cl)c3)oc12)c1ccc(F)cc1 | active: 13 µM | –
CC(Oc1ccccc1F)C(=O)NC1CCS(=O)(=O)C1 (stereo unspecified) | inconclusive: 0.0058 µM [inhibitor, full curve, poor fit] | –

SMILES | Potency | activity change, negative = growth inhibition
CN1C(=O)N(CC(=O)Nc2cccc(S(=O)(=O)N(C)c3ccccc3)c2)C(=O)C12CCCCC2 | active: 20.6 µM | –
O=Cc1c(-[n+]2ccccc2)nc([O-])n1-c1ccccc1 | active: 18.4 µM | –
Cc1ccc2nc(-c3ccc(C#N)cc3)c(Cc3ccccc3C(F)(F)F)n2c1 | inconclusive: 23.1 µM [inhibitor, single point] | –
Cn1ccnc1Sc1nc(Nc2cccc(Cl)c2)nc(N2CCOCC2)n1 | inactive | –
Cc1ccc(Nc2c([N+](=O)[O-])cc(C(=O)N3CC(=O)Nc4ccccc43)cc2[N+](=O)[O-])c(C)c1 | inconclusive: 29.1 µM [inhibitor, single point] | –
Cc1cc(C)nc(N2CCCC(C(=O)NC3CCCC3)C2)n1 (stereo unspecified) | inactive | –
COc1cccc(Nc2ccc([N+](=O)[O-])c3nonc23)c1 | inactive | –
Cn1nc(C(=O)Nc2cccc(C(F)(F)F)c2)c2ccccc2c1=O | inconclusive: 5.17 µM [inhibitor, partial curve] | –
CC(C)(C)Nc1nc(-c2ccccn2)nc2ccccc12 | active: 4.11 µM | –
O=C(CN1C2CCC1CC(NC(=O)C1CC1)C2)NCc1ccccc1 (stereo unspecified) | inactive | –
CCCn1c(=O)c(C(=O)NCCc2ccc(OC)c(OC)c2)c(O)c2ccccc21 | inconclusive: 10.3 µM [inhibitor, partial curve, poor fit] | –
CC(=O)c1ccc(NC(=O)C(C)Oc2ccc(N(C)S(=O)(=O)c3ccc(C)cc3)cc2)cc1 (stereo unspecified) | inconclusive: 29.1 µM [inhibitor, single point] | –
N=C(CC1CC(=O)NC(=O)C1)C1=C(O)CCCC1=O | inactive | –
CCn1c(CNC(=O)c2ccc(OC)cc2)nnc1SCC(=O)Nc1ccc(OC)cc1 | inactive | –
Cc1ccccc1OCC(=O)OCC(=O)NC1CCCC(C)C1C (stereo unspecified) | inconclusive: 46.1 µM [inhibitor, single point] | –
Cc1ccc(-n2nnnc2-c2cnoc2-c2cccc(F)c2)cc1 | inconclusive: 23.1 µM [inhibitor, single point] | –
CC(Oc1ccccc1)C(=O)N=C1SC2CS(=O)(=O)CC2N1c1cccc(F)c1 (stereo unspecified) | inactive | –
Cc1c(/C=N/NC(=O)c2ccc(Br)o2)cnn1C | inactive | –
CC1(C)CC(=O)C2=C(C1)N=c1s/c(=C/c3ccc(F)c(F)c3)c(=O)n1C2c1ccc(F)cc1 (stereo unspecified) | inconclusive: 20.6 µM [inhibitor, single point] | –
COc1cc(CNc2ccc(N3CCN(C(C)=O)CC3)cc2)ccc1OCc1ccccc1 | inconclusive: 18.4 µM [inhibitor, single point] | –
Cc1ccc(-c2nc3c(c(SCC(=O)N4CCCCC4)n2)Cc2cc(C)ccc2O3)cc1 | inconclusive: 29.1 µM [inhibitor, single point] | –
CCCS(=O)(=O)N1CCN=C1SCc1cccc(C)c1 | – | inconclusive: -32% [inhibitor]
CCc1ccc(-c2nc(CSCC(=O)NCc3ccccc3OC)c(C)o2)cc1 | active: 16.4 µM | –
